{"source": "the CheMixHub viscosity set", "key": {"[1]": {"assay": "xn = mol fraction of the nth substance listed", "conditions": "323.15 K; 101 kPa; x2 = 0.7"}}, "note": "± gives the uncertainty stated by the source. Some entries of the source have several records that differ or are many. Only these are listed. The source may hold further records. Values given together are repeated measurements (runs, samples, wells, individuals or studies). Marks in square brackets tell the records apart. Letters count within one entry."}
{"smiles": "c1ccc(Nc2ccccc2)cc1", "values": [{"measurement": "viscosity", "setting": "323.15 K, 101.33 kPa", "value": "6.1 ± 0.074 mPa·s, 5.993 ± 0.072 mPa·s, 0.633 ± 0.008 mPa·s"}]}
{"smiles": "C[N+](C)(C)CCO.[Cl-]", "note": "+ OCCO", "values": [{"measurement": "viscosity", "setting": "[1]", "value": "19 mPa·s [study A] and 18.72 ± 0.39 mPa·s [study B]"}]}
{"smiles": "Cc1ccc(C)cc1", "values": [{"measurement": "viscosity", "setting": "293.15 K, 101.33 kPa", "value": "0.648 ± 0.005 mPa·s, 0.648 ± 0.007 mPa·s [study A] and 0.6433 ± 0.017 mPa·s [study B] and 0.655 ± 0.009 mPa·s [study C]"}, {"measurement": "viscosity", "setting": "298.15 K, 101.3 kPa", "value": "0.5936 ± 0.016 mPa·s [study A] and 0.602 ± 0.005 mPa·s [study B] and 0.605 ± 0.0043 mPa·s [study C] and 0.613 ± 0.007 mPa·s [study D]"}, {"measurement": "viscosity", "setting": "298.15 K, 101.33 kPa", "value": "0.6071 ± 0.0077 mPa·s [study A] and 0.6045 ± 0.016 mPa·s [study B] and 0.551 ± 0.008 mPa·s [study C] and 0.61 ± 0.004 mPa·s [study D]"}, {"measurement": "viscosity", "setting": "303.15 K, 101 kPa", "value": "0.564 ± 0.006 mPa·s [study A] and 0.5687 ± 0.015 mPa·s [study B] and 0.5874 ± 0.017 mPa·s [study C] and 0.5651 ± 0.004 mPa·s [study D] and 0.5578 ± 0.0051 mPa·s [study E] and 0.5203 ± 0.0082 mPa·s [study F]"}, {"measurement": "viscosity", "setting": "308.15 K, 101 kPa", "value": "0.533 ± 0.008 mPa·s [study A] and 0.5538 ± 0.016 mPa·s [study B] and 0.533 ± 0.022 mPa·s [study C] and 0.5196 ± 0.0044 mPa·s [study D] and 0.534 ± 0.011 mPa·s [study E] and 0.5334 ± 0.012 mPa·s [study F]"}, {"measurement": "viscosity", "setting": "308.15 K, 101.33 kPa", "value": "0.5381 ± 0.0069 mPa·s [study A] and 0.5355 ± 0.015 mPa·s [study B] and 0.49 ± 0.007 mPa·s [study C] and 0.539 ± 0.004 mPa·s [study D] and 0.563 ± 0.004 mPa·s [study E]"}, {"measurement": "viscosity", "setting": "313.15 K, 101 kPa", "value": "0.512 ± 0.005 mPa·s [study A] and 0.512 ± 0.014 mPa·s [study B] and 0.512 ± 0.012 mPa·s [study C] and 0.4592 ± 0.0075 mPa·s [study D]"}, {"measurement": "viscosity", "setting": "323.15 K, 101 kPa", "value": "0.4664 ± 0.014 mPa·s [study A] and 0.4475 ± 0.0043 mPa·s [study B] and 0.4641 ± 0.013 mPa·s [study C] and 0.4046 ± 0.0069 mPa·s [study D]"}]}
{"smiles": "OCCOCCO", "values": [{"measurement": "viscosity", "setting": "303.15 K, 101 kPa", "value": "21.87 ± 0.11 mPa·s [study A] and 21.87 ± 0.11 mPa·s [study B] and 21.87 ± 0.11 mPa·s [study C] and 21.87 ± 0.35 mPa·s [study D] and 21.87 ± 0.15 mPa·s [study E] and 21.87 ± 0.89 mPa·s [study F]"}]}
